Experimental data: article PMC12136788
The other results are listed elsewhere or left out.

T1: UNK ZnF1-3 (human, UniProt Q9C0B0 31-174)
T1 sequence: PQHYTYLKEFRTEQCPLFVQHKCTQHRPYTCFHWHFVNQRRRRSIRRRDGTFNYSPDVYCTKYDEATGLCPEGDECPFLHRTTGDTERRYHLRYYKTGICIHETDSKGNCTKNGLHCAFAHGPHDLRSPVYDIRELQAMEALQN

B1: chr13:41369065:41369066:+_ENSMUSG00000091264_ENSMUST00000165561|mus_mus|motif|central (ssRNA)
RNA: GGGAGUUCUACAGUCCGACGAUCCUAGAGCACUGGCCAUGCAACAUUUCCAGAAGGGCUGCUCGACACUGCCUUCUGUCGGAUACCAGCAAACAGCUUUGGAUAAAACCUUGGAUGUCUUAAUGGCAGUUCACUCUGUGAUGCCAACAGAGGAUUGAGCAUCA
B2: chr5:38918441:38918442:-_ENSMUSG00000005103_ENSMUST00000005234|mus_hu|FALSE|FALSE (ssRNA)
RNA: GGGAGUUCUACAGUCCGACGAUCGACACGGUGCCGUCAACGCACUAGUUUGUAAACACUGACAGGCAACAGUUAAGAUACAUUAAAAAAAAAGGAAAGAUACCCACAAUUCCAUUCUUAAAAUCAAGCACAAAAUCUGACAAUCAACAGAGGAUUGAGCAUCA
B3: 38435923_38436043_3069_3pUTR_ENSG00000171475_ENST00000323571|human|control|control (ssRNA)
RNA: GGGAGUUCUACAGUCCGACGAUCAAUUUUUAAGCUAAUUUUCCCCAUCCAUUUCAAAGAGUAGCCAUGGUCUCCUUGCUCUCAUGCCACGCUCUGAGCACCCUCUACACAUAGCAACAGUUGUAGAAAACCAAAGCAUCUGGUCAACAGAGGAUUGAGCAUCA
B4: chr6:86333760:86333761:-_ENSG00000135316_ENST00000355238|hu_mus|hu_hu_hu_mus_True|98_98 (ssRNA)
RNA: GGGAGUUCUACAGUCCGACGAUCUUCCUCAAGAAUCUGUUCCUUGGUUUUACUCUUAGGAAUCGAGCCCACAAAAAGCCUAUUGUUGGCAACUGAGAUGCAGACACCAAUGUGCUUCCCGGAACGAAUUUCAUGAUUAUUAUACAACAGAGGAUUGAGCAUCA
B5: chr1:165697036:165697037:-_ENSG00000143183_ENST00000464650|hu_hu|motif|central (ssRNA)
RNA: GGGAGUUCUACAGUCCGACGAUCUGAAACAAGAAGGAUGCUAUUUGUUUUUCAUUACAUAAACAUUACCUGAACUUAACGGAUCAAUCCACUUAUUUGAUAAAAAUCAUCUAGGACCAAAAGCACUAUCAAGUUUGCUGGCUGCAACAGAGGAUUGAGCAUCA
B6: chr13:108516651:108516652:-_ENSMUSG00000032846_ENSMUST00000105097|mus_mus|FALSE|FALSE (ssRNA)
RNA: GGGAGUUCUACAGUCCGACGAUCAUCGUGUGCCAUUAGGAAGGUCUCUCGGGCCUUGCUGAGGAACUCGAUAAACUCGCUAUAGUGCCGAGGACUGAUGUGUGUGAGGCGUGAGUGCGUUGUGUUGAUAUAGGCCCCGAUCGUCAACAGAGGAUUGAGCAUCA
B7: 111597692_111597812_5853_3pUTR_ENSG00000170145_ENST00000304987|human|control|control (ssRNA)
RNA: GGGAGUUCUACAGUCCGACGAUCCUGUCGGGCUAACAUGCUGUUUGCCUUACAGGGACCAGUGUAUCAGUUGCGUGGAGAUACUAGAGACACACUUGCCCAGCUGGGAAUUGCAGAGCUAGUGCAUUUCUCCCAAAGCACAGACAACAGAGGAUUGAGCAUCA
B8: chr1:60041781:60041782:+_ENSMUSG00000041040_ENSMUST00000036540|mus_hu|mus_mus_mus_hu_False|68_98 (ssRNA)
RNA: GGGAGUUCUACAGUCCGACGAUCAAGUUUACAAUAGCUCAACUUUAGCAGUAGUGGCAAAUUUUCUUUACUUUAGUUUCACAAAAGAAAAUCUUUAUAACCCAGUCCUAGUCUUGGACAUAGUGAAAGCUAUAAAUUCUGACUCAACAGAGGAUUGAGCAUCA
B9: chrX:131284163:131284164:-_ENSMUSG00000050394_ENSMUST00000052431|mus_hu|FALSE|FALSE (ssRNA)
RNA: GGGAGUUCUACAGUCCGACGAUCGGGGCUCGUGUUUCUAGCCAUUGAGAGGCUGGCCAAAUGGCUAUUGAUAUCCUGGCUAAAUGGAAAGCCCGCAUCCUUGGGCUCGGCAAACAACAGUUUUCCCUGAAUGAAAAGACACUUCAACAGAGGAUUGAGCAUCA
B10: chr1:220276048:220276049:+_ENSG00000067704_ENST00000302637|hu_hu|hu_hu_hu_mus_True|1_8 (ssRNA)
RNA: GGGAGUUCUACAGUCCGACGAUCGCAAAUUGCCUGGUUGGCGGGAAUUGUCCAAGGCUGGGUGGUCCAAACUAAAACGCUAACAGGGGAUGAGGCAUCUGUAAGAGACUCCAACUUCGGAGGAGGUUUUAAGAGAGGAAAUUUCAACAGAGGAUUGAGCAUCA
B11: chr12:76453654:76453655:-_ENSG00000187109_ENST00000548044|hu_hu|FALSE|FALSE (ssRNA)
RNA: GGGAGUUCUACAGUCCGACGAUCUGGUUUCCAUUCACAUUCUUCUUCCGUAGGUUCAUAAAUUGCAUUAAUAAUUUCAAAUCGCUUAUCAAAUAGAGGCUGAUAGAGAACAGCAUACUUCCUUUCAAGAUCGUGAACUUCCUCCAACAGAGGAUUGAGCAUCA
B12: chr4:17845017:17845018:+_ENSG00000109805_ENST00000514176|hu_mus|hu_hu_hu_mus_False|8_48 (ssRNA)
RNA: GGGAGUUCUACAGUCCGACGAUCGCUCUCUUAACUUGUAUCUUCAUUAAGGAACUCUGCAAGGUUAAGUUUACUUUUCUGUAGCGCGCGGUUUUGGGCUCGUCUGGGUAAUCUCAUCUUCAUUUCUAUUCUGGUUCCAUGAUCCAACAGAGGAUUGAGCAUCA
B13: chr1:109605286:109605287:-_ENSG00000197780_ENST00000461096|hu_mus|hu_hu_hu_mus_True|58_58 (ssRNA)
RNA: GGGAGUUCUACAGUCCGACGAUCAAGUUUCAGAGUAACAUUCAGUAACCUCUUUAAAUGCAAUUAUCCUUAUUAUAAACUAAGGGCAAUAAUAAUUUAAUACCGUAAGUGAACUACACACAAAGCCUGAACCGCGAAAAUGGUCAACAGAGGAUUGAGCAUCA
B14: chr15:57879074:57879075:-_ENSMUSG00000022361_ENSMUST00000070143|mus_mus|motif|central (ssRNA)
RNA: GGGAGUUCUACAGUCCGACGAUCCCAGCUGUCUGUGUGAAGAAAUCAGCAAAUUGCAGCAUUUGGGAAUUGCUAAUAAAGCGGUAGUUAAAAAAUAAAAAGUUUAUCAAAAUGAAAGCAGCAUGCAUAGUCAAGGCUUUAUCACAACAGAGGAUUGAGCAUCA
B15: 79847204_79847324_1893_3pUTR_ENSG00000127955_ENST00000351004|human|control|control (ssRNA)
RNA: GGGAGUUCUACAGUCCGACGAUCUAUACAUAUAAUCUAGAUAAGGGCUGUAAUGUUUCCUAAUAUUAAUUACUGUACUUAAAAAUUUACAGGACAUGAACAUAAAUAAAGCUGUUUAAAACUGGCAAACGUAGUAAUAGUCUGCAACAGAGGAUUGAGCAUCA
B16: chr5:137537078:137537079:-_ENSG00000094880_ENST00000394886|hu_hu|FALSE|FALSE (ssRNA)
RNA: GGGAGUUCUACAGUCCGACGAUCAAAUCCAUCAAGUUCUCGAGCUUGGUGUUUUUUGCUGAGCUCCACUCUCAAUUCUCUAAGCGCCUCAUUUUUCACUUGUCCUUUUUCCAGGGGGCCUAAGCUAUCAACUGUUUCAUCGUCCAACAGAGGAUUGAGCAUCA
B17: chr2:187371472:187371473:+_ENSG00000065548_ENST00000337859|hu_hu|FALSE|FALSE (ssRNA)
RNA: GGGAGUUCUACAGUCCGACGAUCACUGGCUACAGUAAUACCUGUUUCAUCUACAUCUCUUGGGAUGUACAGGCUUAAAUCUAUGUCAUUUACACUCACUGAAUCAUCAACCUCAUCACCACCUGUUCCCUGGGUGUAGCGGGUCAACAGAGGAUUGAGCAUCA
B18: chr16:94690093:94690094:+_ENSMUSG00000040785_ENSMUST00000117648|mus_hu|mus_mus_mus_hu_True|58_88 (ssRNA)
RNA: GGGAGUUCUACAGUCCGACGAUCGGGCUGGGAUGACGGACACACAGAUCUUCCCAGAGGGGGAAAAAGUCUUAGUCAAUACUAAUUAAAAAGUGUUAAUGAUUUUUGAAAAUCAGAUUACAUCUAUAAAAGAUGAAAAGCAAACAACAGAGGAUUGAGCAUCA
B19: chr17:24706804:24706805:+_ENSMUSG00000032855_ENSMUST00000035565|mus_mus|FALSE|FALSE (ssRNA)
RNA: GGGAGUUCUACAGUCCGACGAUCGCAAUCUUGCUUGAGAAAAUCCACCUCAGGAGGGCAGGCAUCCUCGAAGGGAGCACUAAUAUUGCCCCCAAACCACUGAGCUGUGGCAGUGGCAUUAGCACCAGAAUCUACCUGAAGCACCAACAGAGGAUUGAGCAUCA
B20: chr4:115894766:115894767:+_ENSMUSG00000028698_ENSMUST00000030464|mus_hu|FALSE|FALSE (ssRNA)
RNA: GGGAGUUCUACAGUCCGACGAUCUUCCACACGGAAAUGUACUUCGGGUUUUCCAACGGCCAGUACCAGUCCGGCCAAACUACCCGAACAGGGUCCUCCCCCUCUCUCCUACAGAACACAACAAAAUGCCCCCGAACUUUCAAGCAACAGAGGAUUGAGCAUCA
B21: chr1:58468927:58468928:-_ENSMUSG00000026034_ENSMUST00000148330|mus_mus|mus_mus_mus_hu_False|8_28 (ssRNA)
RNA: GGGAGUUCUACAGUCCGACGAUCAAUUACUGAAAAAGAUGUUCAUUACCUUAGCUAUGUACUUAAUGAACCAAAUUACCCAAACAAAAUAAACAUGGCAAUAUAAAAAGCUAUACAAUUUACAAAGAUUAAAAGCUUAACUUACAACAGAGGAUUGAGCAUCA
B22: chr5:22955990:22955991:+_ENSMUSG00000029004_ENSMUST00000094962|mus_mus|motif|central (ssRNA)
RNA: GGGAGUUCUACAGUCCGACGAUCUGCAUUGGUAUCCAAAAUACUGGGGCAUGCCAGCCACAGUGCUCAUUGCAAACAUCGGAGUGCAUCCACAAACCCUGUGAUGGUCACACACCAGACACCCGAACCCUGUUAUCGGCUCGACAACAGAGGAUUGAGCAUCA

Each binder was assayed against T1, UNK ZnF1-3 (assay: nsRBNS (natural sequence RNA bind-n-seq); RBNS binding buffer (assumed for nsRBNS): 25 mM Tris pH 7.5, 150 mM KCl, 3 mM MgCl2, 0.01% Triton X-100, 500 ug/ml BSA, 20 U/ml SUPERase-In, 4 C; UNK is unkempt and MSI1 is Musashi-1; names of the RNAs are library labels; protein concentration not given here; high values mean tight binding).

**Q.** With B1 as the binder, how does the binding signal read?
**A.** The binding signal was 1.15 enrichment R.

**Q.** For B2, which binding signal is on record?
**A.** Its binding signal is 2.32 enrichment R.

**Q.** Which binding signal does the source give for B3 here?
**A.** The binding signal was 1.27 enrichment R.

**Q.** How did the binding signal turn out when B4 was run?
**A.** Its binding signal is 1.24 enrichment R.

**Q.** Which binding signal does the source give for B5 here?
**A.** Its binding signal is 0.95 enrichment R.

**Q.** Which binding signal does the source give for B6 here?
**A.** The binding signal was 1.09 enrichment R.

**Q.** How did the binding signal turn out when B7 was run?
**A.** Its binding signal is 0.611 enrichment R.

**Q.** B8 was tested. Which binding signal did it give?
**A.** Its binding signal is 0.538 enrichment R.

**Q.** With B9 as the binder, how does the binding signal read?
**A.** The binding signal was 1.05 enrichment R.

**Q.** Which binding signal does the source give for B10 here?
**A.** The binding signal was 2.7 enrichment R.

**Q.** With B11 as the binder, how does the binding signal read?
**A.** Its binding signal is 1.57 enrichment R.

**Q.** For B12, which binding signal is on record?
**A.** Its binding signal is 0.365 enrichment R.

**Q.** For B13, which binding signal is on record?
**A.** The binding signal was 0.924 enrichment R.

**Q.** Which binding signal does the source give for B14 here?
**A.** The binding signal was 2.65 enrichment R.

**Q.** For B15, which binding signal is on record?
**A.** Its binding signal is 1.58 enrichment R.

**Q.** How did the binding signal turn out when B16 was run?
**A.** The binding signal was 0.532 enrichment R.

**Q.** How did the binding signal turn out when B17 was run?
**A.** The binding signal was 0.618 enrichment R.

**Q.** How did the binding signal turn out when B18 was run?
**A.** The binding signal was 1.62 enrichment R.

**Q.** B19 was tested. Which binding signal did it give?
**A.** Its binding signal is 1.5 enrichment R.

**Q.** B20 was tested. Which binding signal did it give?
**A.** Its binding signal is 1.06 enrichment R.

**Q.** B21 was tested. Which binding signal did it give?
**A.** Its binding signal is 0.759 enrichment R.

**Q.** For B22, which binding signal is on record?
**A.** Its binding signal is 1.26 enrichment R.
